Reference: PubChem BioAssay AID1345083 (National Center for Advancing Translational Sciences (NCATS), 2018)
Values joined by “and” are separate entries in the source; they are usually repeats but may differ in a detail not shown here. Identical values can stand only once. Hit rate of the full screen: of about 94,000 compounds, about 6,200 (6.6%) were called active. The inconclusive results got no clear call from the source; some entries with a clear call stand among them for comparison. Calls follow the shape of the dose curve; as a rule, active = well fitted inhibition curve with a large enough effect; inconclusive = small, poorly fitted or top-dose-only effect; inactive = flat fitted curve, though single readings scatter. Potencies beside an inconclusive call are fits to weak or partial responses and may not hold up.

Experiment: Cytotoxic Profiling in HEK 293 Cell Line of Diverse Libraries Using Quantitative High-Throughput Screening; also: nearly all actives have a fitted effect of over 60% in size
Conditions: HEK 293 viability, ATP luminescence (CellTiter-Glo), 48-72 h; activity change, negative = cytotoxicity: at 115 µM (top of the series) unless noted; series mostly up to 115 µM
Method in brief: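 HEK 293 cells at 250 cells/well were exposed to compounds by pintool transfer for 48 or 72 hr at 37 degree Celsius, 5% CO2. Viability was read as ATP-coupled luminescence with CellTiter-Glo after 10 min at room temperature.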
% is scaled to controls: 0 for no effect and ±100 for the full control effect; potency is read from the fitted curve at half-maximal effect; tags tell the direction and shape of the fitted curve.

SMILES	activity change, negative = cytotoxicity	Potency	outcome
CC(C)n1cc2cc(C(=O)NCCc3ccncc3)sc2c1	inactive: -2.7%	–	–
CC1(c2ccccc2)N(Cc2cccnc2)C(=O)OC12CCN(Cc1ccccc1)CC2 (centres undefined)	–	inconclusive: 70.8 µM [inhibitor, partial curve, poor fit]	–
COc1ccc(OCC(O)CN2CCC(=O)N(Cc3ccccc3)CCc3ccccc32)cc1 (centres undefined)	–	inconclusive: 35.5 µM [inhibitor, partial curve, poor fit]	–
CCN1CCCC2(Cc3ccccc3CN(C(=O)c3ccccc3)C2)C1 (centres undefined)	–	inconclusive: 100 µM [inhibitor, partial curve, poor fit]	–
Cc1ccc(C(=O)Nc2cccc(-c3nnc4n3CCCC4)c2)c(C)c1	inactive: -28.5%	–	–
O=C(NC1CCCCC1)N1Cc2[nH]cnc2C[C@H]1c1nc(-c2ccncc2)no1	inactive: -1.37% [at 172 µM]	–	–
NC(=O)c1cc(-c2ccccc2F)cc2c1OCCN2Cc1cccnc1	–	inconclusive: 100 µM [inhibitor, partial curve]	–
O=C(c1ccccc1)N1CCC(N2C(=O)C(O)C23CCCCC3)CC1 (centres undefined)	inactive: -17.8%	–	–
O=C(NCC1CCCCC1)c1cn2cc(-c3ccc(C(F)(F)F)cc3)sc2n1	–	inconclusive: 44.7 µM [inhibitor, partial curve]	–
COc1ccccc1CC(=O)N1CCCc2ncc(C(=O)Nc3ccccc3)cc21	–	inconclusive: 89.1 µM [inhibitor, partial curve, poor fit]	–
COC1CCN(c2cc(-c3cccnc3)nc3c(C)noc23)CC1	inactive: -13.7% [at 172 µM]	–	–
O=C(CC1=C2CCCCC2N(Cc2ccccc2)C1=O)N1CCc2ccccc2C1 (centres undefined)	–	active: 50.1 µM	–
CCN(CC)CCNC(=O)C1CCCN(S(=O)(=O)c2ccccc2)CCC(=O)NCC1 (centres undefined)	–	–	inactive
CN1CCN(C(=O)c2ccc(CC3CCN(S(C)(=O)=O)CC3)cc2)CC1	–	inconclusive: 89.1 µM [inhibitor, single point]	–
CC(C)Cn1c(=O)c(C(=O)N(C)C)nc2cccnc21	inactive: -4.29% [at 172 µM]	–	–
CCCC(=O)N1Cc2ccccc2CC2(CCCN(C)C2)C1 (centres undefined)	–	active: 89.1 µM	–
COC1CCCN(c2cc(-c3cccc(C(F)(F)F)c3)nc3c(C)noc23)C1 (centres undefined)	–	inconclusive: 70.8 µM [inhibitor, partial curve]	–
O=C(c1ccccc1OC1CCN(C2Cc3ccccc3C2)CC1)N1CCCCC1	–	inconclusive: 56.2 µM [inhibitor, partial curve, poor fit]	–
CSc1ccc(-c2cccc(C(=O)NCCNC(=O)c3ccccc3Cl)c2)cc1	–	inconclusive: 28.2 µM [inhibitor, partial curve, poor fit]	–
Cc1nn(-c2ccccc2)c2c1C(C)N(CC1CN(C(=O)c3ccccc3Cl)C1)C2=O (centres undefined)	–	active: 50.1 µM	–
COc1ccc(C(=O)N2CCC3(CC2)CC(=O)Nc2ccccc2O3)cc1	inactive: -25.8%	–	–
COCc1nc(C2CC(N)C2)cc(N2CCN(S(=O)(=O)N(C)C)CC2)n1 (centres undefined)	inactive: -2.84%	–	–

SMILES	activity change, negative = cytotoxicity	Potency	outcome
COC1CN(c2ccc(C)cc2)C12CCN(C(=O)COc1ccccc1)CC2 (centres undefined)	–	inconclusive: 89.1 µM [inhibitor, single point]	–
Cc1nc2cccnc2n1CC1CCCN(C(=O)Nc2ccc(C(F)(F)F)cc2)C1 (centres undefined)	–	inconclusive: 50.1 µM [inhibitor, partial curve, poor fit]	–
O=C(c1cccc(Cl)c1)N1Cc2ccccc2CC2(CCCN2Cc2ccncc2)C1 (centres undefined)	–	inconclusive: 50.1 µM [inhibitor, partial curve, poor fit]	–
O=C(NCc1ccc(F)cc1)c1nc(-c2cccc(C(F)(F)F)c2)c2ccccn12	–	inconclusive: 35.5 µM [inhibitor, partial curve, poor fit]	–
NC(=O)c1ccc(NC(=O)c2cc3n(n2)CC(c2ccc(Br)cc2)OC3)cc1 (centres undefined)	–	active: 35.5 µM	–
CCOc1ccccc1CN1CCCCCNC(=O)CC1c1ccccc1 (centres undefined)	–	inconclusive: 50.1 µM [inhibitor, partial curve, poor fit]	–
O=C(c1ccccc1)N1CC[C@H](c2nc3ccc(F)cc3[nH]2)C1	–	inconclusive: 100 µM [inhibitor, partial curve]	–
O=[S+]([O-])(c1ccccc1)N1CC2(CCCN2Cc2cccnc2)Cc2ccccc21 (centres undefined)	–	inconclusive: 79.4 µM [inhibitor, partial curve, poor fit]	–
CO[C@H]1CN(C(C)C)[C@H]1C1CCN(C(=O)c2cc(C)nn2C)CC1	inactive: 1.03%	–	–
O=C1c2cnc(-c3cccc(O)c3)nc2OCCN1Cc1ccc(F)cc1F	–	inconclusive: 39.8 µM [inhibitor, full curve]	–
COc1cccc(C(=O)NCCNC(=O)c2cccc(-c3ccc(SC)cc3)c2)c1	–	inconclusive: 89.1 µM [inhibitor, partial curve, poor fit]	–
CN(C)c1cc(NCc2cccnc2-n2cnc3ccccc32)ncn1	inactive: 4.75%	–	–
COC(=O)[C@H](Cc1ccc(OC)cc1)NC(=O)[C@H]1CN(C(=O)c2ccc(N(C)C)cc2)CCN1S(=O)(=O)c1ccccc1	–	inconclusive: 50.1 µM [inhibitor, partial curve, poor fit]	–
COc1ccccc1CNC(=O)C[C@@H]1CCNC[C@@H]1Cc1cc(-c2ccccc2)on1	–	active: 63.1 µM	–
O=C(Cc1c(F)cccc1Cl)N1CCCN(c2cc(-c3ccccc3)[nH]n2)CC1	–	inconclusive: 50.1 µM [inhibitor, partial curve, poor fit]	–
COc1ccc(NC(=O)c2nc(C(O)c3cccc(O)c3)oc2C)cn1 (centres undefined)	–	inconclusive: 79.4 µM [inhibitor, partial curve, poor fit]	–
COc1cccc(CN2Cc3nc(-c4cc(F)cc(F)c4)ccc3OCC2=O)c1	–	active: 63.1 µM	–
CCN1CCN(C(=O)CCC[C@@H]2[C@H]3CCCN4CCC[C@@H](CN2Cc2ccccc2)[C@@H]34)CC1	–	inconclusive: 28.2 µM [inhibitor, partial curve, poor fit]	–
O=c1[nH]c(C2CCCN(Cc3ccc(-c4cc(F)cc(F)c4)cc3)C2)nc2ccc(F)cc12 (centres undefined)	–	inconclusive: 50.1 µM [inhibitor, partial curve, poor fit] and active: 44.7 µM	–
COc1ccc(C(=O)N[C@H]2CO[C@H]3[C@@H]2OC[C@@H]3n2nnnc2-c2ccc3c(c2)OCO3)cc1	–	inconclusive: 89.1 µM [inhibitor, single point]	–
Cc1nn2c(c1-c1ccccc1C(C)C)N(Cc1cccc(C(=O)O)c1)CCC2	–	active: 56.2 µM	–
O=C1c2c(nc(COc3ccc4c(c3)OCO4)n2Cc2ccccc2)NCCN1Cc1cccc(Cl)c1	–	active: 31.6 µM	–

SMILES	activity change, negative = cytotoxicity	Potency	outcome
CN1CCOc2c(C(=O)NCCc3cnc[nH]3)cc(-c3ccccc3)cc21	–	inconclusive: 112 µM [inhibitor, partial curve]	–
Cc1cc2nc3n(c(=O)c2n1CC(=O)NCc1ccccc1Cl)CCCCC3	–	inconclusive: 56.2 µM [inhibitor, partial curve, poor fit]	–
O=C1CCN(CC(O)C(F)(F)F)c2ccc(F)cc2CN1Cc1ccccc1 (centres undefined)	–	inconclusive: 79.4 µM [inhibitor, partial curve, poor fit]	–
CCOC(=O)CCNC(=O)N1CCCC(c2nc(C(C)C)no2)CCNC(=O)CC1 (centres undefined)	inactive: -5.62%	–	–
CCC(NC(=O)c1cc(C(C)C)nn1C)c1ccc(S(C)(=O)=O)cc1 (centres undefined)	–	inconclusive: 56.2 µM [inhibitor, partial curve, poor fit]	–
COc1cccc(CN(Cc2ccccc2)[C@H]2C[C@H]3CCOC[C@@]3(c3ccccc3)C2)c1	–	inconclusive: 31.6 µM [inhibitor, partial curve, poor fit]	–
O=C(c1ccc(Cl)cc1)N1CC2(CCCN(C3CCCCC3)C2)Cc2ccccc21 (centres undefined)	–	inconclusive: 79.4 µM [inhibitor, partial curve]	–
CC(C)CN1C(=O)c2cccn2CC1CNC(=O)c1ccc(F)cc1 (centres undefined)	–	inconclusive: 56.2 µM [inhibitor, partial curve, poor fit]	–
COc1cccc(CN2CCC3(CC2)NC(=O)c2ccccc2O3)c1	inactive: -18.2%	–	–
COc1ccc(-c2ccnc(N[C@H]3CO[C@H]4[C@@H]3OC[C@@H]4NC(=O)c3ccc4c(c3)OCO4)n2)cc1	–	active: 31.6 µM	–
O=C(NCc1ccc2c(c1)OCO2)c1ccc(-c2ccc(N3CCSCC3)nc2)cc1	–	inconclusive: 50.1 µM [inhibitor, partial curve, poor fit]	–
CN1CCCN(S(=O)(=O)c2cccc(Br)c2)c2ccccc21	–	active: 39.8 µM	–
CC1CCN(C(=O)c2cc3c(s2)CCN(C(=O)c2ccc(Cl)cc2)C3)CC1	–	active: 39.8 µM	–
CCC1(N2CCN(C(=O)Nc3cc(Cl)ccc3OC)CC2)CCN(C(=O)NC)C1 (centres undefined)	inactive: -11%	–	–
CN(C)c1ccc(CN2CCC3(CC2)CC(=O)Nc2ccccc2O3)cc1	inactive: -18.2%	–	–
COc1cccc(NC(=O)c2cnc3n[nH]c(-c4ccc(OC)cc4C)c3n2)c1	–	active: 100 µM	–
CC1=NS(=O)(=O)N(C)C=C1C(=O)OCc1nc(-c2ccccc2)oc1C	–	inconclusive: 12.6 µM [inhibitor, full curve, poor fit]	–
O=C(Nc1ccc(Cl)cc1)N1CCN(c2ccc3nnc(-c4ccccc4)n3n2)CC1	–	inconclusive: 89.1 µM [inhibitor, single point] and inconclusive: 50.1 µM [inhibitor, partial curve, poor fit]	–
N#Cc1ccc(C(=O)N2CCC(n3cc(-c4nc(-c5ccccc5)no4)nn3)C2)cc1 (centres undefined)	–	inconclusive: 44.7 µM [inhibitor, partial curve, poor fit]	–
COc1ccc(NC(=O)c2ccc3c(c2)NC(C)(CNc2ccccc2)CO3)cc1OC (centres undefined)	–	inconclusive: 63.1 µM [inhibitor, partial curve, poor fit]	–
